Measured values reported in PubChem BioAssay AID1460 (National Center for Advancing Translational Sciences (NCATS), 2008).
About 5,800 (2.1%) of roughly 270,000 compounds were called active. The inconclusive results got no clear call from the source; some entries with a clear call stand among them for comparison. Calls follow the shape of the dose curve; as a rule, active = well fitted inhibition curve with a large enough effect; inconclusive = small, poorly fitted or top-dose-only effect; inactive = flat fitted curve, though single readings scatter. Potencies beside an inconclusive call are fits to weak or partial responses and may not hold up.

Each compound was assayed against Microtubule-associated protein tau (Homo sapiens) (UniProt P10636) (assay: qHTS for Inhibitors of Tau Fibril Formation, Thioflavin T Binding). Conditions: recombinant tau K18 P301L (four-repeat tau fragment), heparin-induced fibrillization, ThT fluorescence; series mostly up to 57.4 µM.
How it was run: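 Heparin-induced fibrillization of the P301L-mutant K18 repeat-domain fragment of human tau was followed by ThT binding in quantitative high-throughput format.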
% is scaled to controls: 0 for no effect and ±100 for the full control effect; potency is read from the fitted curve at half-maximal effect; tags tell the direction and shape of the fitted curve.
Also: nearly all actives have a fitted effect of over 55% in size.

Chain of UniProt P10636 (P10636 whole entry, looked up, the tested form may be a part): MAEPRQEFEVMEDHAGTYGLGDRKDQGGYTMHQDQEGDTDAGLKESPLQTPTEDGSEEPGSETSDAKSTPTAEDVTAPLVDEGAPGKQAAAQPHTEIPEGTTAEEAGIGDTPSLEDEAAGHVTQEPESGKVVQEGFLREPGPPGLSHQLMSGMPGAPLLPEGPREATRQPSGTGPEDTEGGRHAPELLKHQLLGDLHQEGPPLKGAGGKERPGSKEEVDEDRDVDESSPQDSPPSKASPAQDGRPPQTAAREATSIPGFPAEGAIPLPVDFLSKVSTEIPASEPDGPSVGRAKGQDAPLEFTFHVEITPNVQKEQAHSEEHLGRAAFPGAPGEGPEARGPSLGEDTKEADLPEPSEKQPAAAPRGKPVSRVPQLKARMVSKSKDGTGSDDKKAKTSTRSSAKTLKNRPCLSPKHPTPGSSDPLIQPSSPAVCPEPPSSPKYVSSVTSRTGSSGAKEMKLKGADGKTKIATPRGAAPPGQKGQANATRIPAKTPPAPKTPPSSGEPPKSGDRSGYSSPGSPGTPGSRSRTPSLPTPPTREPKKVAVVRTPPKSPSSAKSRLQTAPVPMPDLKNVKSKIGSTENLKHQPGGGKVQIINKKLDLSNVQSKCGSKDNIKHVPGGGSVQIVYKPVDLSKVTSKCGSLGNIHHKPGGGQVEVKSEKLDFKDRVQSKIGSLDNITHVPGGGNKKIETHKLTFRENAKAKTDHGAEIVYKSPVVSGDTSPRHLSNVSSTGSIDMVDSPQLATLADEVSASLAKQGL

Q: With CC1CCN(c2nc3c(c(=O)[nH]c(=O)n3C)n2CCCc2ccccc2)CC1 as the compound, how does the Potency read?
A: Its Potency is inconclusive: 31.6 µM [inhibitor, single point].

Q: For CCOC(=O)CNC(=O)CSc1nc2cccnc2n1C1CCCCC1, which Potency is on record?
A: The Potency was “inactive”.

Q: For O=C(CSc1ncn[nH]1)c1ccco1, which Potency is on record?
A: The Potency was inconclusive: 35.5 µM [inhibitor, partial curve].

Q: How did the Potency turn out when COc1ccc2oc(-c3ccc(NC(=O)c4ccc(Cl)cc4Cl)cc3)nc2c1 was run?
A: Its Potency is inconclusive: 0.794 µM [inhibitor, full curve, poor fit].

Q: CSc1ccc(/C=C(\NC(=O)c2ccc(C)cc2)C(=O)NN)cc1 was tested. Which Potency did it give?
A: Its Potency is inconclusive: 17.8 µM [inhibitor, partial curve].

Q: For Cc1ccc(-n2ncc3c(N4CCN(c5ccc(F)cc5)CC4)ncnc32)cc1, which Potency is on record?
A: Its Potency is inconclusive: 1.41 µM [inhibitor, full curve].

Q: Which Potency does the source give for CCOc1ccc(/C=C/c2nc(C#N)c(N3CCC(C)CC3)o2)cc1 here?
A: The Potency was inconclusive: 12.6 µM [inhibitor, partial curve].

Q: With COc1ccccc1CNC(=O)CCCCn1c(=O)c2ccccc2n(CC(=O)Nc2cccc(Cl)c2)c1=O as the compound, how does the Potency read?
A: Its Potency is inconclusive: 5.01 µM [activator, full curve].

Q: How did the Potency turn out when CC(=O)Nc1nc2ccccc2n1CCN(C)C was run?
A: The Potency was “inactive”.

Q: How did the Potency turn out when COCOc1cc(OC)ccc1C(=O)/C=C/c1ccc([N+](=O)[O-])cc1 was run?
A: The Potency was inconclusive: 22.4 µM [inhibitor, partial curve].

Q: How did the Potency turn out when COc1ccccc1N1CCN(c2csc3ccccc3c2=O)CC1 was run?
A: Its Potency is inconclusive: 14.1 µM [inhibitor, partial curve].

Q: How did the Potency turn out when COc1ccccc1NCC(=O)N/N=C/C=C/c1ccccc1 was run?
A: The Potency was active: 14.1 µM.

Q: Which Potency does the source give for CN(C)c1ccc(/C=N/NC(=O)c2ccc(CN3CCOCC3)cc2)cc1Br here?
A: The Potency was inconclusive: 14.1 µM [inhibitor, single point].

Q: Which Potency does the source give for CCOc1ccc(Sc2cc(C(=O)NCc3ccccc3Cl)c3ccccc3n2)cc1 here?
A: The Potency was “inactive”.

Q: How did the Potency turn out when COc1ccc(OC)c(N=c2oc3cc(O)ccc3cc2C(N)=O)c1 was run?
A: The Potency was active: 31.6 µM.

Q: How did the Potency turn out when COc1ccc(NC(=O)CSc2nc3ccc(OC)cc3[nH]2)cc1 was run?
A: Its Potency is inconclusive: 10 µM [inhibitor, partial curve, poor fit].

Q: With COc1cccc(/C=C/C(=O)c2ccc[nH]2)c1 as the compound, how does the Potency read?
A: The Potency was inconclusive: 17.8 µM [inhibitor, partial curve].

Q: How did the Potency turn out when C=CCNC(=S)NNC(=O)C(CC(C)C)CC(C)O (stereo not given) was run?
A: Its Potency is “inactive”.

Q: CCOC(=O)N1CCc2c(sc3c2C(=O)NC(c2ccc(C(=O)OC)cc2)N3)C1 (stereo not given) was tested. Which Potency did it give?
A: The Potency was inconclusive: 4.47 µM [inhibitor, partial curve].

Q: With Cc1nnc(SCC(=O)Nc2ccc(N(C)C)cc2)[nH]c1=O as the compound, how does the Potency read?
A: Its Potency is inconclusive: 14.1 µM [inhibitor, partial curve, poor fit].

Q: Which Potency does the source give for COc1ccccc1-c1nccc(NCc2cccc(C)c2)n1 here?
A: The Potency was “inactive”.

Q: For Cc1no[n+]([O-])c1COc1ccc(/C=N/n2nnnc2N)cc1, which Potency is on record?
A: The Potency was “inactive”.

Q: For CC(C)Oc1cccc(C(=O)C2CCCN(Cc3cccn3-c3ccccn3)C2)c1 (stereo not given), which Potency is on record?
A: The Potency was inconclusive: 20 µM [inhibitor, single point].

Q: With O=C(CSc1nc(O)cc(=O)n1-c1ccccc1)NC1CCCCC1 as the compound, how does the Potency read?
A: Its Potency is “inactive”.

Q: How did the activity, negative = inhibition turn out when CC#CCN1c2ccccc2[C@]23C[C@@H](C(=O)OC)N(C(=O)CC(C)C)C2=NC(C(=O)OC)=C(C(=O)OC)[C@H]13 was run?
A: The activity, negative = inhibition was inactive: 2.61% [at 11.5 µM].

Q: How did the Potency turn out when CCC(C)NC(=O)c1ccccc1NC(=O)COc1ccc(OC)cc1 (stereo not given) was run?
A: The Potency was “inactive”.

Q: For CCN(CC)CCOC(=O)c1ccc(NC(=O)c2cc3cc(OC)ccc3oc2=O)cc1, which Potency is on record?
A: Its Potency is inconclusive: 12.6 µM [inhibitor, partial curve].

Q: How did the Potency turn out when Cc1cccc(-c2nnc(SCc3ccc(C#N)cc3)n2Cc2ccco2)c1 was run?
A: The Potency was inconclusive: 15.8 µM [inhibitor, partial curve].

Q: For CC(=O)Nc1ccc(S(=O)(=O)N(C)c2ccccc2)cc1, which Potency is on record?
A: Its Potency is “inactive”.

Q: How did the Potency turn out when COC(=O)c1c(-c2cccs2)csc1NC(=O)c1ccc(C)cc1 was run?
A: The Potency was active: 31.6 µM.

Q: How did the Potency turn out when Cc1ccc(O)c(C2=NCCNC(C(F)(F)F)=C2)c1 was run?
A: Its Potency is “inactive”.

Q: With CCN(CC)c1ccc(/C=N/NC(=O)Cc2cccs2)cc1 as the compound, how does the Potency read?
A: Its Potency is inconclusive: 22.4 µM [inhibitor, partial curve].

Q: How did the Potency turn out when Cc1ccc[n+](C2C(c3ccc([N+](=O)[O-])cc3)C(C#N)=C([S-])NC2(O)C2CC2)c1 (stereo not given) was run?
A: The Potency was inconclusive: 25.1 µM [inhibitor, partial curve].

Q: For COC(=O)CNC(=O)/C=C/c1cc(Br)ccc1OC, which Potency is on record?
A: The Potency was “inactive”.

Q: COc1ccc(-c2nc3ccccc3n3c(-c4ccc(OC)cc4)c4c(=O)n(C)c(=O)n(C)c4c23)cc1 was tested. Which Potency did it give?
A: The Potency was inconclusive: 35.5 µM [inhibitor, single point].

Q: How did the Potency turn out when CC(C)(C)C1CCC(=NNC(=O)c2cc3c(s2)CCCC3)CC1 (stereo not given) was run?
A: The Potency was inconclusive: 17.8 µM [inhibitor, partial curve].

Q: Which Potency does the source give for Cc1ccc(CNC(=O)CCCN2C(=O)CCn3nc(-c4cccn4C)cc32)cc1 here?
A: The Potency was “inactive”.

Q: How did the Potency turn out when O=C(NC(Cc1c[nH]c2ccccc12)C(=O)Nc1ccc(F)c([N+](=O)[O-])c1)c1cccs1 (stereo not given) was run?
A: Its Potency is inconclusive: 20 µM [inhibitor, partial curve].

Q: How did the Potency turn out when CCCOc1ccc(CNC(=O)C2CCN(C(=O)c3sccc3-n3cccc3)CC2)cc1 was run?
A: The Potency was inconclusive: 39.8 µM [inhibitor, single point].

Q: Which Potency does the source give for CCCSc1nc(O)c(C2OC(=O)c3c2ccc(OC)c3OC)c(=O)n1C (stereo not given) here?
A: The Potency was inconclusive: 39.8 µM [inhibitor, single point].

Q: Which Potency does the source give for S=C(NCc1ccco1)N1CCN(c2cccc(Cl)c2)CC1 here?
A: The Potency was inconclusive: 35.5 µM [inhibitor, single point].

Q: With O=C1c2cccnc2C(Nc2ccccc2)N1Cc1ccco1 (stereo not given) as the compound, how does the Potency read?
A: The Potency was inconclusive: 28.2 µM [inhibitor, partial curve].

Q: COc1c(OC)c(O)c2c(=O)c(O)c(-c3ccccc3)oc2c1OC was tested. Which Potency did it give?
A: The Potency was inconclusive: 28.2 µM [inhibitor, single point].

Q: For Cc1cc(SCC(=O)c2cccs2)nc2c(C)cccc12, which Potency is on record?
A: The Potency was inconclusive: 20 µM [inhibitor, partial curve].

Q: For Cc1c(Cl)cccc1-n1nc(C)c2c(C)cc(=O)n(CC(=O)N3CCCc4ccccc43)c21, which Potency is on record?
A: The Potency was “inactive”.
